Measurements: PubChem BioAssay AID1346428 (National Center for Advancing Translational Sciences (NCATS), 2018)
The campaign covered roughly 48,000 compounds. About 1,200 (2.5%) were called active. Not shown: some 2% with an inconclusive outcome.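 The calls were made as follows: active = activation of at least 60% and not above a set upper limit (about 1 call in 100 departs from these limits); inconclusive = activation of 40% to 60%, or above that upper limit; inactive = activation under 40%.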 Some of the results follow.

Molecular target: Probable G-protein coupled receptor 32 (Homo sapiens) (UniProt O75388)
Assay: qHTS for Agonists of Human Resolvin D1 Receptor DRV1; also: 0% is about no effect
Details: CHO-K1 GPR32 beta-arrestin PathHunter luminescence, 90 min; at 76.9 µM; active compounds read high; zero percent set by DMSO-only wells
In short: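 Step 1: seed CHO-K1 GPR32 beta-arrestin cells, 2,500/well, overnight at 37 °C. Step 2: add compounds, 90 min at 37 °C. Step 3: detection reagent, 1 h ambient, then luminescence.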

Chain of UniProt O75388 (O75388 whole entry, looked up): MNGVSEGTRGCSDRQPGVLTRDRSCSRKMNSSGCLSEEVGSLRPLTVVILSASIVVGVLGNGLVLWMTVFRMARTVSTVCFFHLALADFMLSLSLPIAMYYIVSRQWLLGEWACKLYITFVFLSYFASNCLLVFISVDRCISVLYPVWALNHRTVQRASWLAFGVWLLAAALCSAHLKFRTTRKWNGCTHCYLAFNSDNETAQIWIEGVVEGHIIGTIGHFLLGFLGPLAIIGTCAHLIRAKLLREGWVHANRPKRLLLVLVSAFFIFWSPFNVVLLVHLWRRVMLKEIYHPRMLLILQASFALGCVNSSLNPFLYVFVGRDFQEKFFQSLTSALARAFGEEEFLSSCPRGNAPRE

activation, inactive:
CCOC(=O)c1ccc(NC(=O)CSc2cc(-c3ccccc3)nc(C)n2)cc1 -22.4%
Cc1ccc(C)c(N(C)C(=O)CCNC(=O)Cn2cnc3ccccc3c2=O)c1 45.4%
COc1cc2nc(N3CCCN(C)CC3)nc(NC3CCN(Cc4ccccc4)CC3)c2cc1OC -5.13%
O=C(CNC(=O)c1ccccc1Cl)OCc1cc(=O)n2nc(C3CC3)sc2n1 11%
Cc1c(-c2ccc(Cl)cc2)c(=O)oc2c(CN3CCN(C)CC3)c(O)ccc12 -13.1%
CC1CCc2c(sc3nc(-c4cc5ccccc5oc4=O)nc(Cl)c23)C1 (stereo not drawn) -5.41%
COc1cccc2sc(N(Cc3cccnc3)C(=O)C3CCCCC3)nc12 -35%
CCOC(=O)C1CCCN(C(=O)c2cc3c(Cl)nc4ccccc4c3s2)C1 (stereo not drawn) 20.7%
CCC1Oc2ccc(C)cc2N(CC(=O)NCc2ccc(F)cc2)C1=O (stereo not drawn) -1.78%
O=C(Nc1cccc(Cl)c1)C(Cc1ccccc1)n1cccc1 (stereo not drawn) 9.43%
CC(C)c1nn2c(=O)cc(COC(=O)c3cccc(NC(=O)c4ccccc4F)c3)nc2s1 -18.6%
CCOc1ccc(C2c3c(-c4ccccc4O)n[nH]c3C(=O)N2Cc2cccnc2)cc1OC (stereo not drawn) -12.4%
O=S(=O)(c1cccc2cnccc12)N1CCCNCC1 -8.16%
CCn1c(CN2CCCCC2)nc2cc(NC(=O)COc3cc(C)ccc3C(C)C)ccc21 2.63%
COc1ccc(Nc2nc(-c3ccccc3)c3cc(Br)ccc3n2)cc1 -42.1%
Cc1ccc(N(C)S(=O)(=O)c2ccc(-c3cnc(C4CC4)o3)cc2)cc1 -34.6%
CCOC(=O)c1cc(-c2ccccc2)n(-c2cccc(C(=O)NC(C)CC)c2)c1C (stereo not drawn) -35%
O=C(Cn1ncc2c3ccccc3n(Cc3ccc(F)cc3)c2c1=O)NC1CCCCCC1 -9.48%
O=C(C1CCCCC1)N(Cc1cccnc1)c1nc2c(F)cccc2s1 -33.9%
Clc1ccccc1CNc1nc2ccccc2c2nc(-c3ccccc3)nn12 -7.15%
CC(C)Oc1ccc(CNC(=O)c2ccc3c(c2)N(Cc2ccc(F)cc2)CCS3)cc1 -21.1%
OC[C@H]1NC[C@@H](O)[C@@H]1O -0.486%
NC(=S)c1ccc[n+]([C@@H]2O[C@@H](COP(=O)([O-])OP(=O)(O)OC[C@H]3O[C@@H](n4cnc5c(N)ncnc54)[C@H](OP(=O)(O)O)[C@@H]3O)C(O)C2O)c1 (stereo partly drawn) 8.95%
